From publication PMC11320581 (ACS Infectious Diseases, 2024)

Key:
[1] = molecular target: T1, N. gonorrhoeae topoisomerase IV (Neisseria gonorrhoeae, UniProt P48374+Q5F754); experiment: biochemical
[2] = molecular target: T1, N. gonorrhoeae topoisomerase IV; settings: previous study; cited from earlier work

C[C@@H]1CN2c3c(cc4c(N5C(=O)OC[C@@H]5C)noc4c3F)CC3(C(=O)NC(=O)NC3=O)[C@H]2[C@H](C)O1 [zoliflodacin, Zoliflodacin]
EC50 [1]: ~55 µM | fold lower cleavage complexes with positively compared to negatively supercoiled DNA ([1]; topoisomerase IV 200 nM, in the absence and presence of zoliflodacin): ~3 fold | total (double-stranded + single-stranded) DNA cleavage ([1]; topoisomerase IV, 100 μM): 19.6% | double-stranded DNA cleavage ([1]; wild-type topoisomerase IV, 100 μM): 12.0% | IC50 for decatenation, fold higher than that for supercoiling [2]: ~3 fold
